Reference: PMC4336329 (PLoS ONE, 2015)
The whole screen tested about 310,000 compounds, of which about 14,000 (4.5%) showed an effect of 50% or more. The effect is printed as a negative number. The list shows a part of the results.

These compounds were tested against human ether-à-go-go-related gene (hERG) potassium channel (human, UniProt Q12809) (assay: primary screen, population patch clamp on CHO cells stably expressing hERG).
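Further: peak tail current of the secondary pulse compared with the same well before compound.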

Chain of human ether-à-go-go-related gene (hERG) potassium channel (Q12809 whole entry, looked up): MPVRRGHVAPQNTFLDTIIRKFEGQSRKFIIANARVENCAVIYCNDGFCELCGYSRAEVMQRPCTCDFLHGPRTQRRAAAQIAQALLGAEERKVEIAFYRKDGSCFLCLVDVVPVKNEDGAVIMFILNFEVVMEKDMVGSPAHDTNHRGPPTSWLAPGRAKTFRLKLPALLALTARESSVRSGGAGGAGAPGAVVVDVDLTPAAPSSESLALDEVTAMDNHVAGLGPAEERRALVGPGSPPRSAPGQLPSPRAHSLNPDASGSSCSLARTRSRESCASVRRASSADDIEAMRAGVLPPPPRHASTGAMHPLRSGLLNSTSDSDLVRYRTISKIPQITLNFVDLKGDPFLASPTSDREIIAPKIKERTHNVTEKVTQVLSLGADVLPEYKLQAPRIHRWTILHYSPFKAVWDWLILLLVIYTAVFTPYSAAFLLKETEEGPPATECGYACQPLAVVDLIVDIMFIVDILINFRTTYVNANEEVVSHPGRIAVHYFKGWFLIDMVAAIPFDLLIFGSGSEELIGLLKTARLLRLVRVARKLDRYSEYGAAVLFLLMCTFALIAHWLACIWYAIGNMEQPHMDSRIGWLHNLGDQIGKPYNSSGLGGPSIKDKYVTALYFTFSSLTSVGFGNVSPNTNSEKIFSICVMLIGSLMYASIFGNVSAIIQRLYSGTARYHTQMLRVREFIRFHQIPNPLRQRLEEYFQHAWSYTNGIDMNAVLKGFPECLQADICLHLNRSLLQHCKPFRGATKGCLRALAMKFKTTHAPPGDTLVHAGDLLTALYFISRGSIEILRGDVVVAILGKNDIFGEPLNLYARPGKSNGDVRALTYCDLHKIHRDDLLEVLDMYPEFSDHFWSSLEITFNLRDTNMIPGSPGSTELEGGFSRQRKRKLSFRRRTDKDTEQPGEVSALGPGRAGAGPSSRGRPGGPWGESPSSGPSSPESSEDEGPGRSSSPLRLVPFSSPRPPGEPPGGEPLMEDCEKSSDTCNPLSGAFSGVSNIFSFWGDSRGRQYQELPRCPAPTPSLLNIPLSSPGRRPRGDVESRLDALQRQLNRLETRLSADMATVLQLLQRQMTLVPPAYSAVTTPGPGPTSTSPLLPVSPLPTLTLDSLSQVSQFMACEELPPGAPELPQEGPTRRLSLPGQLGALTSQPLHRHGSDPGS

Row | Structure (SMILES) | hERG current change (%, negative = inhibition) at 10uM
1 | Cc1cc(=O)oc2cc(NC(=O)CCC(=O)O)ccc12 | 3.98%
2 | O=C(CCN1CCN(c2ccccc2)CC1)Nc1cccc(Br)c1 | -61.4%
3 | Fc1cnc(Cl)nc1N1CCN(c2ccccc2)CC1 | -17.4%
4 | COc1ccc(-n2c3c(cc(C(=O)N4CCC(C)CC4)c2=O)C(=O)CC(C)(C)C3)cc1 | -2.69%
5 | COc1cccc(-c2nn(C)c3sc(C(=O)N4CCN(c5ccccn5)CC4)cc23)c1 | -5.96%
6 | O=C1NC(=O)C(=Cc2cc(Cl)ccc2OCc2ccc(C(=O)O)cc2)C(=O)N1 | 6.01%
7 | CC(=O)OC1N=C(c2ccccc2Cl)c2cc(Br)ccc2N(C)C1=O (stereo not shown) | -12.4%
8 | CCc1n[nH]c(=S)n1/N=C/c1cc(OC)cc([N+](=O)[O-])c1O | 1.77%
9 | O=C(c1ccc(Oc2ccccc2)cc1)c1nc2c(n1O)CCCC2 | 10.6%
10 | C/C(=N\NC(=S)NCc1ccccc1)c1cccs1 | -26.8%
11 | CNC(=O)N(C1=NCC(C)(C)S1)c1ccc(F)c(Cl)c1 | 16.2%
12 | CC(C)Nc1nnc(SC(C)C(=O)Nc2ccc(Cl)cn2)s1 (stereo not shown) | -1.61%
13 | CCOc1ccc(N2C(=O)C3CC(C)=C(C)CC3C2=O)c([N+](=O)[O-])c1 (stereo not shown) | -24.8%
14 | C/C(=N/Nc1ccc(F)cc1)c1ccc(Cl)s1 | 8.69%
15 | COc1ccc(OC)c(/C=C/C(=O)N(C)CC(=O)Nc2cc(C)ccc2C)c1 | -15.1%
16 | C=C(C)c1cccc(C(C)(C)NC(=O)NCC2COCCO2)c1 (stereo not shown) | 15%
17 | O=C(CC1SCCNC1=O)Nc1ccc(Cl)c(Cl)c1 (stereo not shown) | -4.35%
18 | Cc1ccccc1CN1CCc2cc([N+](=O)[O-])ccc21 | 19.1%
19 | O=C(Nc1cccc(C(=O)O)c1)/C(=C\c1ccc(F)cc1)NC(=O)c1ccco1 | 6.5%
20 | CCOc1ccc(Cc2n[nH]c(=S)n2N)cc1 | 21.3%
21 | Cc1ccc(CNC(=O)C2CCN(S(=O)(=O)N3CC(C)CC(C)C3)CC2)cc1 (stereo not shown) | 15%
22 | CC(OC(=O)C1CCCC1)C(=O)Nc1ccc(S(N)(=O)=O)cc1 (stereo not shown) | 8.98%

Row | Structure (SMILES) | hERG current change (%, negative = inhibition) at 10uM
23 | O=[N+]([O-])c1ccc(Nc2ccccc2)c2nonc12 | -8.36%
24 | COc1cccc2cc(C(=O)Nc3ccccc3C(=O)N3CCOCC3)oc12 | -21.3%
25 | CC1CCCCC1NC(=O)c1ccc(N2CCCC2=O)cc1 (stereo not shown) | -3.85%
26 | Cc1c(S(=O)(=O)N(C)C2CCCCC2)c(=O)n(C)c(=O)n1C | -3.42%
27 | CCc1ccccc1N(CC(=O)NC1CCCCC1)C(=O)CNC(=O)c1ccco1 | 2.14%
28 | Cc1nc2ncnn2c(N2CCN(S(=O)(=O)c3ccc(Br)cc3)CC2)c1C | -20.7%
29 | Cc1cccc(-c2nnc(SCC#N)n2-c2cccc(Cl)c2)c1 | -62.5%
30 | O=C(COc1ccc(Cl)cc1)N1CCN(C(=O)c2ccccc2F)CC1 | -44.8%
31 | Cn1nc(C(F)(F)F)c2cc(NC(=O)OCc3ccc(F)cc3)sc21 | 1.74%
32 | O=C(CCN1C(=O)c2ccccc2C1=O)Nc1ccc(-c2nc3ccccc3o2)cc1 | 12%
33 | Cc1ccc(N2C(=O)NC(=O)/C(=C/c3cnc(-c4ccccc4)nc3)C2=O)cc1C | 18.1%
34 | COc1ccccc1CCC(=O)Nc1ccc(OC)c(S(=O)(=O)N2CCCCC2)c1 | -28.5%
35 | Cc1nn(-c2ccccc2)c(Cl)c1C(=O)N1CCN(C)CC1 | 18.8%
36 | Cc1nc2c(sc(=S)n2Cc2ccco2)c(=O)n1CC(=O)Nc1ccc(F)cc1 | 7.01%
37 | C[C@@H]([C@@H](O)c1ccccc1)N(C)C(=O)C(N)Cc1ccccc1 (stereo partly shown) | 4.16%
38 | CCN1CCN(C(=O)COCc2cc(-c3ccc4c(c3)OCO4)on2)CC1 | -4.57%
39 | Cn1ncc(Cl)c1C(=O)Nc1cc(C(F)(F)F)ccc1F | 29.5%
40 | COc1ccc(/C=N/NC(=O)c2c(C)n(C)c3ccc(OC)cc23)c(OC)c1 | -14.3%
41 | O=C(Nc1ccon1)c1ccc2c(c1)OCO2 | 8.3%
42 | COc1ccccc1CNC(=O)[C@H](C)NC(=O)C1CCN(C(=O)[C@@H](N)C(C)C)CC1 | 7.21%
43 | N#Cc1ccccc1S(=O)(=O)N1CCN(C(=O)CN2CCCSc3ccccc32)CC1 | -38.7%
44 | Cc1nc([N+](=O)[O-])c(NCCO)n1Cc1ccccc1 | 8.23%

Row | Structure (SMILES) | hERG current change (%, negative = inhibition) at 10uM
45 | COC(=O)c1cn(NC(=O)c2ccc(OC)c([N+](=O)[O-])c2)c(=O)c2ccccc12 | 8.34%
46 | Cc1ccccc1S(=O)(=O)c1c(C)cc(C)n(C)c1=O | 7.04%
47 | O=C(NC(C(=O)c1ccccc1)N1CCOCC1)c1cccs1 (stereo not shown) | -21.1%
48 | COc1cc(CN2CCCCCC2)cc(OC)c1O | 8.88%
49 | CSc1ccccc1C(=O)Nc1cc2c(cc1C(=O)O)OCCCO2 | 18.2%
50 | O=C(COC(=O)CCC1CCCC1)Nc1ccc(F)cc1 | 19%
51 | NS(=O)(=O)c1ccc(CCNC(=O)c2ccc3nc4ccc(Cl)cc4c(=O)n3c2)cc1 | 10.4%
52 | CN(C)S(=O)(=O)c1ccc(C(=O)NCCSc2ccc(Br)cc2)cc1 | -32.3%
53 | CC(C)C[C@H]1CN=C(Nc2ccccc2)N1CCC1CCCCC1 | -61.5%
54 | COc1nc(-c2ccc(Cl)cc2Cl)nc2ccccc12 | 6.59%
55 | COc1ccc(CN2CCN(Cc3ccco3)CC2)c(OC)c1.O=C(O)C(=O)O | -46.4%
56 | CCN1C(=O)c2ccccc2S(=O)(=O)c2ccc(C(=O)N3CCOCC3)cc21 | 5.98%
57 | CCN1CCN(CC(=O)N2N=C(c3cccs3)CC2c2ccc(OC)c(OC)c2)C(=O)C1=O (stereo not shown) | 7.51%
58 | Cc1c(C(=O)Nc2ccc(OCc3ccccc3)cc2)cccc1[N+](=O)[O-] | -0.125%
59 | C/C(=N\NC(=O)c1cc(C)nc2ccccc12)c1ccccn1 | 1.58%
60 | Cc1n[nH]c(=O)c2c(NC(=O)CSc3nc4ccccc4c(=O)n3C(C)C)oc(C)c12 | -27%
61 | CC(Oc1cc2oc(=O)c3c(c2cc1Cl)CCCC3)C(=O)NCCN1CCOCC1 (stereo not shown) | 2.86%
62 | CC(C)(C)NC(=O)C(=O)N/N=C/c1cccs1 | -22.1%
63 | COC(=O)C1=C(Nc2ccc(OC)cc2)C=C(C)C(C(=O)OC)C1c1ccc(C)cc1 (stereo not shown) | 18.9%
64 | Cc1oc(C(C)(C)C)cc1C(=O)Nc1ccc(N2CCOCC2)cc1 | 5.05%
65 | COC(=O)c1ccc2c(=O)[nH]c(COC(=O)c3c(-c4ccccc4Cl)noc3C)nc2c1 | -5.72%
66 | Cc1noc(C)c1S(=O)(=O)Nc1c(C)n(C)n(-c2ccccc2)c1=O | 24.7%

Row | Structure (SMILES) | hERG current change (%, negative = inhibition) at 10uM
67 | CCOC(=O)c1c(C)nc(C)c(C(=O)OCC)c1-c1ccccc1 | -6.13%
68 | Cc1ccc(S(C)(=O)=O)cc1S(=O)(=O)Nc1ccccc1 | 4.45%
69 | CCC1CCCCN1C(=O)CSc1nnc(-c2ccc(OC)cc2)o1 (stereo not shown) | -19.2%
70 | CCC(C)NCCOCCOc1ccc(Cl)c(C)c1C.O=C(O)C(=O)O (stereo not shown) | -31.7%
71 | COC(=O)c1ccc(S(=O)(=O)NCc2ccccn2)n1C | 16.8%
72 | CCCC(C(=O)NC(C)(C)C)N(CC1CCCO1)C(=O)CNS(=O)(=O)c1ccc(F)cc1 (stereo not shown) | 10.2%
73 | CCOC(=O)C1=C(C)N(CCCC(=O)NCc2ccc3c(c2)OCO3)C(=O)NC1c1ccc(Br)cc1 (stereo not shown) | 16.4%
74 | COc1ccc(/C(C)=N/NC(=O)c2nnn(-c3nonc3N)c2-c2ccccc2)cc1 | 19.8%
75 | O=C(CNC(=O)c1ccncc1)N/N=C/c1ccc(Br)cc1 | -22.7%
76 | Cn1cccc1Cc1nnc(SCC(=O)Nc2nccs2)n1C | 13.3%
77 | CC(C)(C)c1ccc(S(=O)(=O)Nc2ccccn2)cc1 | 21%
78 | Cc1cccc(N2CCN(C(=O)Cn3cccc3)CC2)c1C | 2.77%
79 | COC(=O)c1cccc(S(=O)(=O)N2CCC(c3nc4ccccc4o3)CC2)c1 | -1.94%
80 | O=C(c1ccc2nccnc2c1)N1CCN(c2cccc(C(F)(F)F)c2)CC1 | -40%
81 | O=C(NCc1ccco1)C(=O)NCC1OCCCN1S(=O)(=O)c1ccc(F)cc1 (stereo not shown) | 0.0912%
82 | CC(C)Cc1nc(SCC(=O)N2CCCCC2)c2c(=O)n(C)c(=O)n(C)c2n1 | -43.1%
83 | COc1c(S(=O)(=O)N2CCN(c3ccc(F)cc3)CC2)ccc(Cl)c1Cl | 15.2%
84 | Cc1nn(C(C)(C)C)c(C)c1/C=N/OC(=O)Nc1ccc(Cl)cc1 | -27%
85 | Cc1nn(C)cc1CNC(=O)CCC(=O)O | 16.9%
86 | CCOC(=O)C1=C(CN2CCN(C(=O)c3ccco3)CC2)NC(=O)NC1c1ccc(OC)cc1 (stereo not shown) | -64.9%
87 | O=C1NC(=O)C2(COC(c3ccccc3Cl)OC2)S1 (stereo not shown) | 21.6%
88 | CCCCC(=O)Nc1ccnc(-c2cccnc2)n1 | -23.9%
